We go through 120 sequences from the supplement of paper PMC10126150.

Values marked as one replicate rest on one cluster of the flow cell; about a third of the high ones do not repeat.

The test system of the series is ATP. In words: switch fluorescence ratio, 500 uM ATP over buffer (Cy3 cluster intensity, sum of 5 cycles each) (fold (ratio)); higher = stronger signal-on switching upon ATP binding; sequences stand for … in TCGTCGGCAGCGTCAGATGTGTATAAGAGACAGTTTTTTTTTTTTTTTTTTTTTTTTT…TC. The following applies: aptamer strand: ATP DNA aptamer (quencher-CACCTGGGGGAGTATTGCGGAGGAAGG + anchor), 100 nM annealed; ATP concentration: 500 uM; one replicate. The essentials: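 Values give the fluorescence ratio for each switch-domain sequence, averaged from per-cluster ratios of summed target-cycle to summed buffer-cycle Cy3 intensity. The Cy3-labelled switching-strand clusters sat on a modified Illumina MiSeq flow-cell, were annealed to 100 nM quencher-labelled ATP aptamer, and were imaged in selection buffer, then after 15 min with 500 uM ATP at 22 °C. Five cycles ran with NaOH stripping and re-annealing between them, and clusters outside 100-1000 RFU were excluded.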
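Note: ATP exposure 15 min at 22 °C before imaging.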

For TAGACTTAT, the switch fluorescence ratio was determined as 0.988.

As to GGGCTGGGTG, the switch fluorescence ratio was 1.06.

Regarding CTCTTCAACG, the switch fluorescence ratio amounted to 1.08.

ATGAGTAGCG: the switch fluorescence ratio was found to be 1.06.

With AGGTCCGATA, the switch fluorescence ratio came to 1.

For the sequence TGACTACCAG, the switch fluorescence ratio is 1.07.

For the sequence ACGCAAATA, the switch fluorescence ratio is 4.25.

For the sequence GCTTCCGGTT, the switch fluorescence ratio is 1.24.

On to GAGGAAATGA, for which the switch fluorescence ratio was determined as 0.985.

For the sequence TTCGCCCGGT, the switch fluorescence ratio was found to be 0.975.

Take AGCGTACCTT: the switch fluorescence ratio turned out to be 1.17.

As for TTAGATAACA, the switch fluorescence ratio turned out to be 0.95.

Take ACGCCGCACT: the switch fluorescence ratio is 2.02.

With GGAAAAACGG, the switch fluorescence ratio was found to be 1.11.

Take TAGTGGGTCG: the switch fluorescence ratio turned out to be 0.971.

Regarding TTACCTGCGG, the switch fluorescence ratio is 1.01.

For TCACTAGAGG, the switch fluorescence ratio is 1.04.

CGTTCGATA: the switch fluorescence ratio was 0.98.

In the case of GATGTGTCCC, the switch fluorescence ratio is 0.983.

For CGTGTGTGCT, the switch fluorescence ratio came to 1.01.

On to TTCTATCCAA, for which the switch fluorescence ratio amounted to 0.983.

As to CAACCGTCAC, the switch fluorescence ratio came to 1.83.

For the sequence AGCCTTTACG, the switch fluorescence ratio turned out to be 0.998.

With GGTGGTGCCC, the switch fluorescence ratio was 0.998.

Turning to TTTTGATATG, the switch fluorescence ratio is 0.989.

For the sequence CATAATCGTT, the switch fluorescence ratio was 0.959.

Consider TGTATTTACT, for which the switch fluorescence ratio turned out to be 0.998.

As for TTAGGTATTT, the switch fluorescence ratio was 1.02.

Consider ACTAGCCTTG, for which the switch fluorescence ratio is 0.983.

Take TGATTAACGT: the switch fluorescence ratio was found to be 1.03.

In the case of CCACTCGTGG, the switch fluorescence ratio was found to be 1.03.

For the sequence TTTTCGGAAG, the switch fluorescence ratio came out at 1.04.

Consider CTTCATGGGA, for which the switch fluorescence ratio worked out at 1.01.

Regarding CCATCTTGGT, the switch fluorescence ratio came out at 1.03.

AGGAGATAG: the switch fluorescence ratio worked out at 0.982.

Turning to ATTCGACGTA, the switch fluorescence ratio turned out to be 0.923.

Regarding GGGATTTTTC, the switch fluorescence ratio is 1.01.

As for GGTTCTCACT, the switch fluorescence ratio was determined as 0.969.

Take ATTCAGGAAC: the switch fluorescence ratio is 0.964.

As for CGAGCATGCG, the switch fluorescence ratio was 0.984.

With TGCACCGCAT, the switch fluorescence ratio turned out to be 2.28.

With GCACATAAGA, the switch fluorescence ratio was 1.01.

CGTTTATTTG: the switch fluorescence ratio is 0.977.

Consider TGTTCAAAC, for which the switch fluorescence ratio was 1.02.

For TAAAGCAGAC, the switch fluorescence ratio is 2.21.

As for CTGCCCGCGA, the switch fluorescence ratio was 3.39.

As for AGCGTTTCCA, the switch fluorescence ratio was 0.981.

Turning to CCAATCGGCA, the switch fluorescence ratio worked out at 1.07.

GAGTGATAAT: the switch fluorescence ratio came to 1.04.

As for TGCGTAAGGA, the switch fluorescence ratio was 0.995.

Regarding GGTGACTTGT, the switch fluorescence ratio turned out to be 0.995.

CGCTTCGGTC: the switch fluorescence ratio is 1.09.

Consider AGGTCCGAGC, for which the switch fluorescence ratio amounted to 1.07.

On to CGGAAATATG, for which the switch fluorescence ratio worked out at 1.01.

In the case of GAGTCGAATC, the switch fluorescence ratio turned out to be 1.13.

As for TGGGTTGTTC, the switch fluorescence ratio worked out at 1.05.

For the sequence GGGACGGGTC, the switch fluorescence ratio is 0.981.

For the sequence TTAAGTTGGC, the switch fluorescence ratio stood at 1.04.

For the sequence CTGATACATG, the switch fluorescence ratio is 1.05.

Consider GGCCGAGCGG, for which the switch fluorescence ratio is 1.02.

With GGTAATTAAT, the switch fluorescence ratio was 1.48.

GTGGATGGCA: the switch fluorescence ratio came out at 1.12.

For the sequence TGAGTGGCAC, the switch fluorescence ratio came to 0.995.

AAACATGCGG: the switch fluorescence ratio came to 1.

Consider GTGATAGGCC, for which the switch fluorescence ratio was found to be 0.999.

Turning to TCCGCCCAGA, the switch fluorescence ratio amounted to 1.9.

On to GAATTTCTTA, for which the switch fluorescence ratio came to 0.967.

Consider GAGACTCTG, for which the switch fluorescence ratio is 1.04.

For the sequence CAAACCTAT, the switch fluorescence ratio came to 1.05.

In the case of TAGTAAAGGC, the switch fluorescence ratio was 1.05.

On to GCTTGATGCG, for which the switch fluorescence ratio amounted to 1.01.

On to TTTACAGGTG, for which the switch fluorescence ratio worked out at 3.44.

For CGTACTAGCT, the switch fluorescence ratio was found to be 1.03.

Regarding CGGTGACAAT, the switch fluorescence ratio amounted to 1.01.

Take ATCAGCGATA: the switch fluorescence ratio came to 1.18.

On to GCTGTGTGAA, for which the switch fluorescence ratio is 0.963.

For the sequence CGCAGTCCTT, the switch fluorescence ratio was determined as 1.2.

Turning to TTACACGATT, the switch fluorescence ratio stood at 1.05.

Turning to TTTAACCA, the switch fluorescence ratio came to 1.07.

Take TAACGCGCGC: the switch fluorescence ratio worked out at 0.99.

AGATATATTG: the switch fluorescence ratio was determined as 0.993.

Regarding CCTGTGGAGG, the switch fluorescence ratio was found to be 1.

For TCCGGGCCAG, the switch fluorescence ratio was 1.03.

For the sequence CCTGGTGGGC, the switch fluorescence ratio was 1.01.

As for TGGCCTTTTT, the switch fluorescence ratio came to 0.978.

Regarding GGTGGTCG, the switch fluorescence ratio came out at 1.15.

ATGTACCTTG: the switch fluorescence ratio turned out to be 1.08.

Turning to ATTAGCAGCC, the switch fluorescence ratio is 1.02.

In the case of TCTTGGTAAA, the switch fluorescence ratio amounted to 1.02.

In the case of AGATATATAG, the switch fluorescence ratio was found to be 0.998.

Regarding AGAATACTGT, the switch fluorescence ratio stood at 1.03.

Turning to ACCTGTACAA, the switch fluorescence ratio turned out to be 1.17.

As to GGAAGAAAGC, the switch fluorescence ratio amounted to 0.984.

For the sequence GACACTCCCC, the switch fluorescence ratio worked out at 2.62.

Regarding GTGGCTCTAG, the switch fluorescence ratio came to 0.966.

For GGTCAAATCC, the switch fluorescence ratio is 0.994.

CTATAGTGGG: the switch fluorescence ratio was 0.975.

In the case of AAATGCTCGA, the switch fluorescence ratio stood at 1.02.

GAAAAGGTAT: the switch fluorescence ratio came to 0.964.

On to GGGGGAGAAG, for which the switch fluorescence ratio stood at 0.962.

Turning to AGTGATTGC, the switch fluorescence ratio turned out to be 1.02.

As to CAAGAATAAA, the switch fluorescence ratio was 1.02.

Take GTTGGACTCC: the switch fluorescence ratio came out at 1.02.

TAAATTAAGA: the switch fluorescence ratio was found to be 1.02.

TTCGAGAACA: the switch fluorescence ratio is 0.97.

Take AGGGGCGTGT: the switch fluorescence ratio worked out at 0.95.

TTAATCCTTT: the switch fluorescence ratio is 1.02.

As for TGAACGGACG, the switch fluorescence ratio stood at 1.

As for TTCAGGAAGA, the switch fluorescence ratio was determined as 1.03.

For the sequence TGCGATTCCC, the switch fluorescence ratio is 1.26.

As to TGCATGTATG, the switch fluorescence ratio stood at 0.991.

With CAAATACATG, the switch fluorescence ratio was 1.04.

CGCTATAGGG: the switch fluorescence ratio was found to be 1.09.

Consider TTGTCTCTGT, for which the switch fluorescence ratio worked out at 0.947.

For the sequence GTAGGTTGTC, the switch fluorescence ratio is 0.992.

On to ACCTAGTGGT, for which the switch fluorescence ratio came out at 1.06.

Take GCATCAGGG: the switch fluorescence ratio was found to be 1.04.

For CCGAGAGACG, the switch fluorescence ratio came to 1.15.

TCATTAGCCG: the switch fluorescence ratio is 1.03.

With CGTCCGAACG, the switch fluorescence ratio was found to be 1.34.
